Our source for the binding signal values is article PMC6212790.

Some of the results follow. At the low end of the ranking the order means little.

The target of the assay is T1, GST-Rok-C97-191 (UniProt O34857).
T1 sequence: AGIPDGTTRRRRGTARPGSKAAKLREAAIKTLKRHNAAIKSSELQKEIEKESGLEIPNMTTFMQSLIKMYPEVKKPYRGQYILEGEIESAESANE
Put plainly: protein binding microarray.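 Note: rank score from −0.5 (least bound) to 0.5 (best bound).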 The following applies: Rok is a gene silencer of Bacillus subtilis; high values mean tight binding; most listed sequences are background and not binding sites; double strand, one strand shown.
In turn, AAATTGAC came in with a binding signal of 0.159 E-score.

GAAGGCTC: the binding signal is -0.292 E-score.

CTTCTTTA: the binding signal is -0.142 E-score.

For the sequence AGCAGCGA, the binding signal was found to be 0.0497 E-score.

Turning to GGCAACTA, the binding signal stood at 0.265 E-score.

In turn, GTGATTCA had a binding signal of -0.0286 E-score.

The sequence CTTGCATC registered a binding signal of -0.0243 E-score.

As for CTCTCTAC, the binding signal amounted to 0.064 E-score.

Consider CGTATGCA, for which the binding signal is -0.0434 E-score.

For ATCGGGGC, the binding signal was -0.214 E-score.

In the case of CCGCGCGC, the binding signal was -0.154 E-score.

With CTCAAGTA, the binding signal is 0.25 E-score.

The sequence ACTAAAGG gave a binding signal of -0.0388 E-score.

Regarding AGTGAGGA, the binding signal is -0.098 E-score.

In turn, CTGGCCAC yielded a binding signal of -0.152 E-score.

CGTCGGCC yielded a binding signal of -0.242 E-score.

In the case of ACTCGATG, the binding signal was determined as 0.0705 E-score.

With GTGTAGCA, the binding signal was found to be 0.175 E-score.

TACTTGAA: the binding signal was -0.0128 E-score.

As to TATGCGGA, the binding signal was -0.00837 E-score.

CGGCACCA yielded a binding signal of -0.137 E-score.

Consider AGCCGAGC, for which the binding signal is -0.319 E-score.

For TCATCAGA, the binding signal is 0.00127 E-score.

In turn, TATCGTAA displayed a binding signal of 0.284 E-score.

ACCTATAT: the binding signal is 0.311 E-score.

CACGAGCG had a binding signal of -0.277 E-score.

AGCGGCTA showed a binding signal of -0.035 E-score.

ACGCTTAG displayed a binding signal of -0.236 E-score.

The sequence ATCCCAGA gave a binding signal of -0.0692 E-score.

GACCCTGC came in with a binding signal of -0.165 E-score.

Consider CTTAATAA, for which the binding signal came to 0.0347 E-score.

As to TAGTGGAA, the binding signal amounted to 0.176 E-score.

GCCTCGCC returned a binding signal of -0.323 E-score.

Sequence GAAGAGAA showed a binding signal of 0.00168 E-score.

Regarding ACGGAGAC, the binding signal is -0.171 E-score.

Regarding CAGTATAG, the binding signal came to 0.193 E-score.

On to CACTCCCC, for which the binding signal was -0.348 E-score.

As for AGATCGTA, the binding signal came out at 0.105 E-score.

The sequence ACCTGAAA showed a binding signal of -0.227 E-score.

As to AAAACCAT, the binding signal was -0.0016 E-score.

As to ATCCGGAT, the binding signal is -0.0619 E-score.

Sequence GTAGCGCA yielded a binding signal of 0.000708 E-score.

CAGCAGAA: the binding signal is -0.119 E-score.

CAAGTGGA had a binding signal of -0.172 E-score.

CGGAACGC displayed a binding signal of -0.22 E-score.

CAATTAAC had a binding signal of 0.0689 E-score.

As for ATTAATTG, the binding signal turned out to be 0.198 E-score.

In turn, AGGGCCAT returned a binding signal of -0.00123 E-score.

As to AGGAACCT, the binding signal is -0.109 E-score.

ATAAGTAC displayed a binding signal of 0.318 E-score.

AGGAAAGG: the binding signal is -0.15 E-score.

Take GGACTGCA: the binding signal was -0.224 E-score.

Regarding ATATGTGC, the binding signal was found to be 0.192 E-score.

AAAGTCTA returned a binding signal of -0.0542 E-score.

CGTTGCGC gave a binding signal of -0.322 E-score.

ATCTCCGG registered a binding signal of 0.0557 E-score.

AATCTGTG displayed a binding signal of -0.0756 E-score.

As to AATAAGGG, the binding signal was -0.0328 E-score.

CACTGCCG yielded a binding signal of -0.363 E-score.

Take CAGTATAA: the binding signal is 0.213 E-score.

On to AACGGACT, for which the binding signal is -0.164 E-score.

Sequence GCGGACCC came in with a binding signal of -0.19 E-score.

As to AAGTTTGC, the binding signal is -0.018 E-score.

Regarding GAAATTCA, the binding signal was 0.106 E-score.

On to CACGGGCA, for which the binding signal was -0.13 E-score.

Turning to CCAGATGA, the binding signal amounted to 0.0133 E-score.

Take TCGTATCA: the binding signal was -0.014 E-score.

The sequence TTGTCAAA gave a binding signal of -0.0149 E-score.

In turn, ATGTGTCG displayed a binding signal of 0.0515 E-score.

GCATGGCC showed a binding signal of -0.274 E-score.

Take CAACTAAA: the binding signal came to 0.234 E-score.

Take AGTGTATG: the binding signal turned out to be 0.285 E-score.

Consider GTGTGCAA, for which the binding signal is -0.179 E-score.

ATGTACCA registered a binding signal of 0.335 E-score.

ACTAGTAG: the binding signal turned out to be 0.404 E-score.

Turning to AGCATGCT, the binding signal is 0.0502 E-score.

In the case of ATCCTCCC, the binding signal is -0.0879 E-score.

CAGCACGC came in with a binding signal of -0.356 E-score.

As to AATTTGTC, the binding signal is 0.165 E-score.

CGAACAAA returned a binding signal of 0.0673 E-score.

On to GGATACAC, for which the binding signal is -0.0263 E-score.

In turn, CCGATGGA registered a binding signal of -0.103 E-score.

Sequence CAATGAAG yielded a binding signal of -0.133 E-score.

As to GATGCTAC, the binding signal came to 0.0441 E-score.

GGGACCCA gave a binding signal of -0.304 E-score.

In turn, TCCCTTCA yielded a binding signal of -0.284 E-score.

In turn, CAACGGCG yielded a binding signal of -0.252 E-score.

AATGAGAG had a binding signal of -0.145 E-score.

AATTCGTG had a binding signal of 0.0111 E-score.

In turn, GAAGCCTA displayed a binding signal of 0.0741 E-score.

Consider ATGTTCAC, for which the binding signal was 0.122 E-score.

Turning to GTTCGGTA, the binding signal was -0.0461 E-score.

The sequence GCGAACAA registered a binding signal of 0.13 E-score.

TGGACAAA gave a binding signal of -0.139 E-score.

For the sequence CTTCCCCC, the binding signal was -0.267 E-score.

CCCCGGAA gave a binding signal of -0.248 E-score.

GGGTGTCA showed a binding signal of -0.0897 E-score.

In turn, CGGTGAAC showed a binding signal of -0.0556 E-score.

In turn, CTGTCCAA registered a binding signal of -0.154 E-score.

In turn, AACAGCGT showed a binding signal of -0.0978 E-score.

CACGCACG yielded a binding signal of -0.115 E-score.

On to AGAGAGGC, for which the binding signal is -0.18 E-score.

In turn, ATCACACG gave a binding signal of -0.000509 E-score.

As for AGGAGAGC, the binding signal is -0.179 E-score.

As to ACCCCTCC, the binding signal was -0.313 E-score.

CTCACCGA showed a binding signal of -0.144 E-score.

The sequence AATAGGAT yielded a binding signal of 0.246 E-score.

With GGCACCCA, the binding signal was -0.224 E-score.

Sequence ATCGAGAA had a binding signal of 0.145 E-score.

The sequence ACGTGGCG returned a binding signal of -0.166 E-score.

CAACTAGA returned a binding signal of 0.255 E-score.

Regarding AAAGGATG, the binding signal was -0.047 E-score.

In turn, AAGTAGGG registered a binding signal of 0.267 E-score.

The sequence AGACCTGG yielded a binding signal of -0.167 E-score.

AGAAAAGC showed a binding signal of 0.217 E-score.

The sequence CCGTACGC showed a binding signal of 0.0423 E-score.

Take ACAGTGGG: the binding signal is -0.00225 E-score.

Take AGGAAGCA: the binding signal is -0.1 E-score.

Turning to ACGTCTCC, the binding signal is -0.157 E-score.

In the case of GTCGCAAC, the binding signal was -0.112 E-score.

As to AGGACTCA, the binding signal is 0.0293 E-score.

CACCTCTA showed a binding signal of -0.103 E-score.

For the sequence CGAGAATC, the binding signal was -0.217 E-score.

Consider ACAACTAG, for which the binding signal amounted to 0.306 E-score.

On to GCAGACAC, for which the binding signal was found to be 0.0935 E-score.

Sequence ACCACCCC displayed a binding signal of -0.251 E-score.

GAACTACA yielded a binding signal of 0.252 E-score.

ACGTCACC: the binding signal was -0.186 E-score.

AGCTACGG came in with a binding signal of -0.00912 E-score.

CAGTCTGG displayed a binding signal of -0.185 E-score.

For the sequence AAATAAGG, the binding signal was 0.1 E-score.

On to CGGTAAAG, for which the binding signal turned out to be 0.0577 E-score.

AGATGCGA yielded a binding signal of -0.0935 E-score.

In turn, AGGCGGTA returned a binding signal of -0.0681 E-score.

AAGGATCG yielded a binding signal of -0.00172 E-score.

Sequence TAGGCCAA showed a binding signal of 0.0269 E-score.

In turn, CCTGCCCC had a binding signal of -0.308 E-score.

For the sequence AACGATTC, the binding signal was found to be 0.0496 E-score.

Turning to TTGCACAA, the binding signal was 0.0241 E-score.

ATCATTCA had a binding signal of -0.0332 E-score.

With CAAATCTG, the binding signal was -0.15 E-score.

With CTTAGAAA, the binding signal was found to be 0.103 E-score.

Turning to CGGGTAAC, the binding signal is 0.0536 E-score.

Turning to ACGCTTCG, the binding signal is -0.153 E-score.

ATAAGGTC registered a binding signal of -0.0317 E-score.

Turning to AGGGAAAC, the binding signal is -0.0931 E-score.

CGTGCGTA returned a binding signal of -0.153 E-score.

In turn, TAAGCGTA displayed a binding signal of 0.0574 E-score.

CAGAAACA had a binding signal of 0.099 E-score.

GTGCAACA displayed a binding signal of -0.231 E-score.

With ACCCACGA, the binding signal was -0.0397 E-score.

With AAAGCGAA, the binding signal is -0.078 E-score.

In turn, AGGGGATG returned a binding signal of -0.11 E-score.

In the case of TATAGAAA, the binding signal stood at 0.397 E-score.

As for AGTCCCGC, the binding signal was -0.272 E-score.

Take CAGCGTAG: the binding signal is -0.0938 E-score.

In turn, AAACAGCA registered a binding signal of 0.0841 E-score.

In the case of AGCGTTAA, the binding signal stood at 0.0388 E-score.

In turn, AGCGCCTA registered a binding signal of -0.115 E-score.

Consider GATAGTGA, for which the binding signal was found to be 0.12 E-score.

ATTCATCA: the binding signal was 0.0772 E-score.

In the case of AATATACG, the binding signal came to 0.225 E-score.

The sequence ACATGACG displayed a binding signal of 0.172 E-score.

As for ATTATAAT, the binding signal was determined as 0.313 E-score.

As to GACATCAA, the binding signal is -0.0521 E-score.

For AATTACGA, the binding signal was found to be 0.315 E-score.

AAAGAAGT displayed a binding signal of -0.00409 E-score.

The sequence AAAGAAAG had a binding signal of 0.153 E-score.

For AAGCCAGA, the binding signal was -0.258 E-score.

In turn, AAGTCGGC showed a binding signal of -0.116 E-score.

AACTGGCC: the binding signal is 0.0448 E-score.

Take GGATCCCC: the binding signal is -0.276 E-score.
